# Reference: the supplement of paper PMC9446081
# About 220 (0.56%) of roughly 39,000 compounds showed activity. This is one part of the list.
# System: Escherichia coli K-12 BW25113
# Experiment: relative growth (OD600 normalised to plate interquartile mean) (fraction); higher = less growth inhibition, active = 0.2 or less
# Settings: 50 µM; LB; incubation time: overnight (16-24 h)
# 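Note: static incubation at 37 °C against the wild-type strain, values averaged over two biological replicates.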
row,SMILES,relative growth
1,CO[C@@H]1CN(C)C(=O)c2cc(NS(C)(=O)=O)ccc2OC[C@H](C)N(C(=O)CN(C)C)C[C@@H]1C,inactive: 1.02
2,C[C@H](CO)N1C[C@H](C)[C@H](CN(C)S(=O)(=O)c2cn(C)cn2)Oc2c(NC(=O)c3ccncc3)cccc2C1=O,inactive: 1.02
3,CCS(=O)(=O)N1CCOC[C@]2(CC[C@@H](Cn3cncn3)O2)C1,inactive: 1.02
4,C[C@H](CO)N1C[C@H](C)[C@H](CN(C)C(=O)C2CC2)OCc2cn(nn2)CCCC1=O,inactive: 1.01
5,C[C@@H]1CN([C@@H](C)CO)C(=O)Cc2cc(NS(C)(=O)=O)ccc2O[C@@H]1CN(C)C,inactive: 0.875
6,O=C(C[C@H]1C=C[C@H](NC(=O)Nc2cc(F)ccc2F)[C@@H](CO)O1)NCCCN1CCOCC1,inactive: 1.03
7,Cc1noc(C)c1S(=O)(=O)Nc1ccc2c(c1)C(=O)N([C@H](C)CO)C[C@H](C)[C@@H](CN(C)C(=O)NC1CCCCC1)O2,inactive: 0.992
8,C[C@@H]1CN([C@@H](C)CO)C(=O)c2cc(NC(=O)Nc3ccccc3)ccc2O[C@H]1CN(C)Cc1ccc(C(F)(F)F)cc1,inactive: 1.03
9,C[C@H]1CN([C@@H](C)CO)C(=O)c2cc(NC(=O)Nc3ccccc3)ccc2O[C@@H]1CN(C)CC1CCCCC1,inactive: 0.978
10,CNC[C@@H]1OCCCC[C@@H](C)Oc2ccc(NC(=O)CCCN(C)C)cc2C(=O)N([C@H](C)CO)C[C@@H]1C,inactive: 0.996
11,Cc1noc(C)c1NC(=O)N(C)C[C@@H]1OCCCC[C@H](C)Oc2ccc(NS(=O)(=O)c3cccs3)cc2C(=O)N([C@@H](C)CO)C[C@@H]1C,inactive: 1
12,C[C@@H]1CN([C@H](C)CO)C(=O)Cc2cc(NC(=O)CCN3CCOCC3)ccc2O[C@@H]1CN(C)S(=O)(=O)c1ccccc1,inactive: 1
13,CN(C)CC#Cc1ccc([C@@H]2[C@@H](CO)N3C(=O)CN(C(=O)c4cccnc4)C[C@@H]23)cc1,inactive: 1.02
14,COc1ccc(S(=O)(=O)Nc2ccc3c(c2)C(=O)N([C@@H](C)CO)C[C@@H](C)[C@H](CN(C)CC2CCCCC2)OCCCC[C@@H](C)O3)cc1,inactive: 1.03
15,C[C@@H]1CN([C@@H](C)CO)C(=O)c2cc(NC(=O)NC3CCCCC3)ccc2O[C@@H](C)CCCCO[C@@H]1CN(C)Cc1ccncc1,inactive: 0.983
16,Cc1ccc(S(=O)(=O)Nc2ccc3c(c2)C(=O)N([C@H](C)CO)C[C@H](C)[C@H](CN(C)Cc2ccc(C(=O)Nc4ccccc4N)cc2)OCCCC[C@@H](C)O3)cc1,inactive: 0.986
17,CC1Cc2ccccc2N1NC(=O)c1ccc(Cl)c(S(N)(=O)=O)c1 (stereo not given),inactive: 1
18,Cc1noc(C)c1NC(=O)Nc1ccc2c(c1)C(=O)N([C@@H](C)CO)C[C@H](C)[C@@H](CN(C)S(=O)(=O)c1ccccc1)OCCCC[C@H](C)O2,inactive: 1
19,C[C@H](CO)N1C[C@H](C)[C@H](CN(C)Cc2ccccc2)OCCCC[C@H](C)Oc2ccc(NC(=O)Cc3ccccc3)cc2C1=O,inactive: 1.01
20,CCCNC(=O)N(C)C[C@@H]1Oc2cc(-c3ccccc3F)ccc2S(=O)(=O)N([C@@H](C)CO)C[C@H]1C,inactive: 1

row,SMILES,relative growth
1,O=C(O)C1CCCN1 (stereo not given),inactive: 0.976
2,Cc1ccc(S(=O)(=O)Nc2ccc3c(c2)CC(=O)N([C@@H](C)CO)C[C@@H](C)[C@@H](CN(C)S(=O)(=O)c2c(C)noc2C)O3)cc1,inactive: 1
3,Cn1cnc(CCNC(=O)C[C@H]2CC[C@H]3[C@@H](COC[C@@H](O)CN3C(=O)Nc3ccc(C(F)(F)F)cc3)O2)c1,inactive: 0.935
4,C[C@@H]1CN([C@@H](C)CO)C(=O)c2cc(NC(=O)Nc3cccc4ccccc34)ccc2O[C@@H](C)CCCCO[C@H]1CN(C)Cc1ccc2c(c1)OCO2,inactive: 0.986
5,C[C@@H]1CN([C@H](C)CO)C(=O)c2cccc(NC(=O)c3cnccn3)c2O[C@@H]1CN(C)S(C)(=O)=O,inactive: 0.9
6,COc1ccc(S(=O)(=O)N(C)C[C@H]2OCCCC[C@H](C)Oc3ccc(NS(=O)(=O)c4ccc(Cl)cc4)cc3C(=O)N([C@H](C)CO)C[C@H]2C)cc1,inactive: 1.04
7,C[C@H](CO)N1C[C@H](C)[C@H](CN(C)S(C)(=O)=O)Oc2c(NC(=O)CCCCCC(=O)Nc3ccccc3N)cccc2C1=O,inactive: 1.01
8,C=CCOC(=O)[C@H]1[C@@H]2C(=O)O[C@@H](c3ccccc3)[C@@H](c3ccccc3)N2[C@@H](c2ccc(OCCOC(=O)[C@@H]3C[C@@H]4C(=O)N[C@@H](CC(C)C)C(=O)N4[C@@H]3c3cccc(OCCO)c3)cc2)[C@]12C(=O)Nc1ccccc12,inactive: 1.02
9,Cc1ccc(S(=O)(=O)Nc2ccc3c(c2)C(=O)N([C@@H](C)CO)C[C@@H](C)[C@H](CN(C)S(=O)(=O)c2ccc(F)cc2)O3)cc1,inactive: 1.02
10,C[C@@H]1CN([C@@H](C)CO)C(=O)c2cc(NS(=O)(=O)c3ccc(F)cc3)ccc2O[C@@H](C)CCCCO[C@H]1CN(C)S(=O)(=O)c1cn(C)cn1,inactive: 1.01
11,CO[C@@H]1CN(C)C(=O)c2cc(NS(C)(=O)=O)ccc2OC[C@@H](C)N(C(=O)C2CCOCC2)C[C@@H]1C,inactive: 1.01
12,CC1=NN(C)C(=O)CC1,inactive: 0.991
13,O=C(CN1CCOCC1)N[C@@H]1CC[C@H](CCn2cc(C3CCCC3)nn2)O[C@H]1CO,inactive: 1.03
14,COC(=O)CCCCCCNC(=O)c1ccc(NCc2cn(Cc3ccc(C(=O)c4ccc(Cn5cc(CNc6ccc(C(=O)NCCCCCCC(=O)OC)cc6)nn5)cc4)cc3)nn2)cc1,inactive: 0.899
15,C[C@@H]1CN([C@@H](C)CO)C(=O)c2cc(C#Cc3ccccc3F)cnc2O[C@H]1CN(C)S(=O)(=O)c1ccccc1,inactive: 1.01
16,C[C@@H]1CN([C@@H](C)CO)C(=O)Cc2cc(NS(=O)(=O)c3ccccc3)ccc2O[C@@H]1CN(C)Cc1ccc(Oc2ccccc2)cc1,inactive: 0.927
17,CNC(=O)C[C@@H]1CC[C@@H]2[C@H](COC[C@H](O)CN2C(=O)c2ccccn2)O1,inactive: 0.963
18,CN(C)C(=O)C[C@@H]1CC[C@H](NC(=O)C2CCOCC2)[C@@H](CO)O1,inactive: 0.998
19,CCC(=O)c1c(O)cc(O)cc1O,inactive: 1.06
20,CCc1c(C)[nH]c2c1C(=O)C(CN1CCOCC1)CC2.Cl (stereo not given),inactive: 1.11

row,SMILES,relative growth
1,C[C@@H](O)/C=C/c1cccc[n+]1C,inactive: 0.971
2,Cc1noc(C)c1NC(=O)Nc1cccc2c1O[C@H](CN(C)C(=O)NC(C)C)[C@H](C)CN([C@@H](C)CO)C2=O,inactive: 0.993
3,Cc1noc(C)c1NC(=O)Nc1ccc2c(c1)C(=O)N([C@H](C)CO)C[C@H](C)[C@H](CN(C)C(=O)Nc1ccc(F)cc1)OCCCC[C@@H](C)O2,inactive: 0.993
4,O=C(CCCCCC(=O)N/N=C/[C@H](O)[C@@H](O)[C@H](O)CO)NO,inactive: 1
5,CN1C(=O)c2cc(NC(=O)C3CCOCC3)ccc2OC[C@H]2O[C@H](CC(=O)NCCc3ccncc3)CC[C@@H]21,inactive: 0.986
6,C[C@@H]1CN([C@@H](C)CO)C(=O)c2cc(NS(=O)(=O)c3ccc(F)cc3)ccc2O[C@H]1CN(C)Cc1ccc(Cl)c(Cl)c1,inactive: 0.962
7,C[C@@H]1CN([C@H](C)CO)C(=O)CCCn2nncc2CO[C@@H]1CN(C)Cc1ccc(C(=O)Nc2ccccc2N)cc1,inactive: 0.969
8,CC[C@@H]1OC(=O)[C@H](C)[C@@H](O[C@H]2C[C@@](C)(OC)[C@@H](O)[C@H](C)O2)[C@H](C)[C@@H](O[C@@H]2O[C@H](C)C[C@H](N(C)C)[C@H]2O)[C@](C)(O)C[C@@H](C)/C(=N\OCOCCOC)[C@H](C)[C@@H](O)[C@]1(C)O,active: 0.165
9,COc1ccc(S(=O)(=O)Nc2cccc3c2O[C@@H](CN(C)Cc2ccc(-c4ccccc4)cc2)[C@H](C)CN([C@@H](C)CO)C3=O)cc1,inactive: 1.03
10,O=C(c1ccccc1Cl)N(c1ccc2oc(=O)sc2c1)S(=O)(=O)c1ccc(Br)cc1,inactive: 1.02
11,C[C@H](CO)N1C[C@H](C)[C@@H](CN(C)CC2CC2)OCCCC[C@H](C)Oc2ccc(NC(=O)NC3CCCCC3)cc2C1=O,inactive: 0.982
12,Cc1ccc(S(=O)(=O)Nc2ccc3c(c2)C(=O)N([C@@H](C)CO)C[C@H](C)[C@@H](CN(C)C(=O)Nc2ccccc2)OCCCC[C@@H](C)O3)cc1,inactive: 1.01
13,COc1ccc(S(=O)(=O)Nc2ccc3c(c2)CC(=O)N([C@@H](C)CO)C[C@H](C)[C@H](CN(C)S(=O)(=O)c2ccccc2)O3)cc1,inactive: 1.01
14,CCC1OC(=O)C(C)C(OC2CC(C)(OC)C(O)C(C)O2)C(C)C(OC2OC(C)CC(N(C)C)C2O)C(C)(O)CC(C)C2NC(COCCOC)OC(C2C)C1(C)O (stereo not given),inactive: 0.433
15,Cc1ccc(S(=O)(=O)N(C)C[C@H]2Oc3ccc(NC(=O)CCCN(C)C)cc3C(=O)N([C@@H](C)CO)C[C@@H]2C)cc1,inactive: 0.981
16,Cc1ccc(N(CC(=O)O)S(C)(=O)=O)cc1,inactive: 0.973
17,O=C(C[C@@H]1CC[C@@H]2[C@H](COC[C@@H](O)CN2S(=O)(=O)c2ccc(F)cc2)O1)N[C@H]1CCN(Cc2ccccc2)C1,inactive: 1
18,CC(C)CC#Cc1cnc2c(c1)C(=O)N([C@@H](C)CO)C[C@@H](C)[C@H](CN(C)S(=O)(=O)c1cccs1)O2,inactive: 1
19,FC(F)(Cl)C(F)(F)Cl,inactive: 1.05
20,NCCC(=O)N1c2ccccc2Sc2ccccc21,inactive: 0.932
